This note sets out measurements from PubChem BioAssay AID1159614 (National Center for Advancing Translational Sciences (NCATS), 2016).

Molecules are shown by their SMILES. The campaign covered roughly 45,000 compounds. About 65 (0.1%) were called active. The call rests on the fitted dose curve; in most records, active means well fitted activation curve with a large enough effect; inconclusive means small, poorly fitted or top-dose-only effect; inactive means no such curve, though single readings can be large or run the other way. The list shows a part of the results.

The assay has as its target Galactocerebrosidase (Homo sapiens) (UniProt P54803). Put plainly: A Novel Cell-Based Assay to Identify Small Molecules for B -Galactocerebrosidase. Further: 0% is about no effect; nearly all actives have a fitted effect of over 65% in size. Conditions: 145M-Twi-hGALC-G270D cells (Twitcher mouse brain line with human GALC G270D), HMU-beta-Gal fluorescence, 48 h; series mostly up to 57.5 µM; activation: at the top concentration. The method in brief: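 Fluorogenic HMU-b-Gal hydrolysis (0.1 mM final, pH 5.2 citrate-phosphate with 1 mg/mL sodium taurocholate; carbonate stop buffer) measures mutant GALC activity after compound treatment of live 145M-Twi Twitcher brain cells stably carrying human GALC-G270D, with wild-type GALC line alongside; activation sought.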
Sequence of UniProt P54803 (P54803 whole entry, looked up): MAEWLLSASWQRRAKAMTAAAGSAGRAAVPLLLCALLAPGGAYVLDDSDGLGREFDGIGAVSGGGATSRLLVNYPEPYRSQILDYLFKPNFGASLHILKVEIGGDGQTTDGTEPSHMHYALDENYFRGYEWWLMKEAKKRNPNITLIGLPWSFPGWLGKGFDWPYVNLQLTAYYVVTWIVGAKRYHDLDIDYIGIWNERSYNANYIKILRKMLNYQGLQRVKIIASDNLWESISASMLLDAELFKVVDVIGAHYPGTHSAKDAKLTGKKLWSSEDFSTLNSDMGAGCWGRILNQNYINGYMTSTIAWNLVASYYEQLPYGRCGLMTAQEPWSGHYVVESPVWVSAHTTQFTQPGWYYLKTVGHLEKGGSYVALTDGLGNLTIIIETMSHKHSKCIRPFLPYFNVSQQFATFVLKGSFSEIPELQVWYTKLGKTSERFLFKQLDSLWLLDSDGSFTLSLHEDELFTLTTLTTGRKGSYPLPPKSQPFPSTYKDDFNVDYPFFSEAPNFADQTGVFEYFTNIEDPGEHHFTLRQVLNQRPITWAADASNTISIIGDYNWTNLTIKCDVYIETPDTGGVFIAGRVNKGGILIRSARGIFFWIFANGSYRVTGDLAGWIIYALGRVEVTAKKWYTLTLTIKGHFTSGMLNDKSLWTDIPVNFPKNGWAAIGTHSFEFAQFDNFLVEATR
For `O=C(NC1CCCC1)c1ccc2c(=O)n(Cc3ccccc3)c(SCc3ccc([N+](=O)[O-])cc3)nc2c1`, the “activation” value was inactive: -29%.
Take `CCc1ccc(CNC(=O)Cn2ccc3cc(S(=O)(=O)N4CCCCCC4)ccc32)cc1`: the “activation” value is inactive: 2.24%.
With `CCN(CCCNC(=O)CSc1cc(=O)n(CC)c2ccccc12)c1ccccc1`, the “activation” value was inactive: -13.9%.
The figure for `Clc1ccc(Cn2c(CN3CCCC3)nc3ccccc32)cc1` is inactive: -18.9%; for `COc1cccc(CNC(=O)CN2C(=O)CCc3cc(S(=O)(=O)N4CCOCC4)ccc32)c1` it is inactive: 1.13%; for `CCc1ccc(-n2nc(CO)c(C(=O)NC(C)c3ccc(Cl)cc3)n2)cc1` (stereo unspecified) it is inactive: -0.125%.
As to `CCOC(=O)N1CCN(Cc2nc3cc(NC(=O)CC)ccc3n2C(C)C)CC1`, the “activation” value was inactive: -2.3%.
Consider `COc1ccc(OC)c2sc(N(Cc3cccnc3)C(C)=O)nc12`, for which the “activation” value was inactive: -14.1%.
The figure for `Cc1nc2ccn(Cc3cccnc3)c(=O)c2cc1C(=O)N1CCN(c2ccccc2F)CC1` is inactive: -18.2%.
The figure for `Cc1c(C)n(Cc2ccccc2)c2ccc(C(=O)N3CCN(c4ccccc4F)CC3)cc12` is inactive: 1.44%; for `COc1ccc(SCc2cc(=O)c3ccc(C)c(C)c3[nH]2)cc1` it is inactive: -7.69%; for `O=C(NCCc1ccc(Cl)cc1)c1cc(-c2ccccc2)n[nH]1` it is inactive: -2.23%.
Take `Cc1ccc(Sc2ccc(N3CCCC(C(=O)Nc4ccc(Br)cc4)C3)nn2)cc1` (stereo unspecified): the “activation” value is inactive: -11.4%.
Take `COc1cc2nc(N(C)CCCNC(=O)C3CCCO3)nc(N)c2cc1OC` (stereo unspecified): the “activation” value was inactive: -17.2%.
For the compound `COc1cccc(CNC(=O)c2ccc(-c3nc(CS(=O)c4ccccc4)c(C)o3)cc2)c1` (stereo unspecified), the “activation” value was inactive: -11.8%.
For `COc1ccc(NC(=O)Cn2cnc3ccc(S(=O)(=O)N4CCC(C)CC4)cc3c2=O)c(OC)c1`, the “activation” value was inactive: -2.35%.
Then `COc1ccc(C2=C(C)C(N3CCC(C(=O)NCc4ccc(C)o4)CC3)=NS2(=O)=O)cc1`, with inactive: -15.3%; and `CCOc1ccc(-c2nnc(SCC(=O)NC3CCCCC3)nc2-c2ccc(OCC)cc2)cc1`, with inactive: -16.1%.
Then `COc1ccc2c(c1)Cc1sc(NC(=O)c3ccccc3C)nc1-2`, with inactive: -12.5%.
Then `Cc1ccc(C)c(N2CCN(c3nc4ccccc4c(=O)n3-c3ccc(Cl)cc3)CC2)c1`, with inactive: -1.47%; and `COc1cccc(-c2nc(S(=O)(=O)c3ccc(C)cc3)c(N3CCCCCC3)o2)c1`, with inactive: -20.9%; and `CCOC(=O)c1ccc(N2C(=O)c3n[nH]c(-c4ccco4)c3C2c2ccc(OC)cc2OC)cc1` (stereo unspecified), with inactive: -15.4%.
Turning to `CC(=O)c1ccc(NC(=O)Nc2ccc3snnc3c2)cc1`, the “activation” value was inactive: -29.9%.
Regarding `COc1ccc(/C=C/C(=O)Nc2ccc(C)cc2)cc1`, the “activation” value was inactive: -15%.
The figure for `CCN(CC)c1ccc(NC(=O)Cn2ncc3c(C)n(Cc4ccccc4F)c(C)c3c2=O)c(C)c1` is inactive: -8.89%; for `Cc1ccc(NC(=O)Cc2ccc(NC(=O)N3CCCCc4ccccc43)cc2)cc1Cl` it is inactive: -12.5%; for `CCCCOc1ccc(C(=O)NCC(c2ccc(Cl)cc2)N2CCOCC2)cc1` (stereo unspecified) it is inactive: -8.2%.
For `Cc1cccc(C)c1-n1ncc(C(=O)NCCCN2CCCCC2)c1C1CCN(C(=O)OC(C)(C)C)CC1`, the “activation” value was inactive: -19.5%.
Then `CC(C)Oc1ccc(CNC(=O)CN2C(=O)CCn3nc(-c4cn(C)c5ccccc45)cc32)cc1`, with inactive: -11.3%; and `COc1ccc(-n2c(SCc3nc(-c4ccc(C)cc4)no3)nnc2-c2ccccc2)cc1`, with inactive: -11%; and `CCOC(=O)c1ccc(NC(=O)CN(Cc2ccc(C)cc2)S(=O)(=O)c2ccc(C)cc2)cc1`, with inactive: -17.7%.
For the compound `O=C(Nc1ccc(Oc2ccccc2)cc1)c1ccc(F)c(S(=O)(=O)N2CCN(c3cccc(Cl)c3)CC2)c1`, the “activation” value is inactive: -3.84%.
For `COC(=O)c1nnn(-c2cccc(C)c2)c1N`, the “activation” value was inactive: -12.2%.
Take `O=C(Nc1nc2c(Cl)cccc2s1)c1ccc(S(=O)(=O)N2CCc3ccccc32)cc1`: the “activation” value is inactive: -16.3%.
Regarding `Cc1ccccc1OCC(=O)Nc1ccc2oc(-c3ccc(F)cc3)nc2c1`, the “activation” value is inactive: 1.66%.
Then `Cc1ccc(C)c(N2C(=O)N(Cc3ccccc3C)c3ccccc3S2(=O)=O)c1`, with inactive: 1.83%; and `COC(=O)c1ccc(NC(=O)CSc2n[nH]c(-c3ccccc3)n2)cc1`, with inactive: -12.6%; and `CC1CN(C(=O)Nc2ccc(C(=O)NCc3ccccc3F)cc2)c2ccccc2S1` (stereo unspecified), with inactive: -12.4%.
Then `Fc1ccccc1N1CCN(Cc2nnc(-c3ccc4c(c3)OCO4)o2)CC1`, with inactive: -10.3%; and `Cc1ccc(-n2ncc(C(=O)N3CCN(Cc4ccccc4)CC3)c2C2CCN(C(=O)OC(C)(C)C)CC2)c(C)c1`, with inactive: 7.74%; and `CC(C)(C)OC(=O)N1CCC(c2c(C(=O)NCc3ccco3)cnn2-c2ccc(F)cc2)CC1`, with inactive: 7.52%.
Take `CCOC(=O)c1ccccc1NC(=O)Cn1c(=O)n(Cc2ccccc2)c(=O)c2c(C)c(C)sc21`: the “activation” value was inactive: -30.9%.
Take `CCC(=O)Oc1ccc(-c2nc3ccccc3c(=O)o2)cc1`: the “activation” value is inactive: 5%.
Then `CCN(c1ccc(Cl)cc1)S(=O)(=O)c1nnc(NC(=O)C(C)C)s1`, with inactive: -15.1%; and `CN1CCC(Nc2ncc3ncnc(Nc4ccc(F)c(Cl)c4)c3n2)CC1`, with inactive: -24.8%; and `O=C1C(c2[nH]c3ccccc3c2O)=Nc2ccccc21`, with inactive: -17.6%.
Then `COc1ccc(-c2nnc(SCC(=O)Nc3ccc(F)cc3)s2)cc1`, with inactive: -9.38%; and `O=c1c2sc3ccccc3c2n(Cc2ccccc2F)c(=O)n1CCc1ccccc1`, with inactive: 4.18%.
Regarding `CN(C)c1ccc(C(CNS(=O)(=O)c2ccc(Br)cc2)N2CCOCC2)cc1` (stereo unspecified), the “activation” value was inactive: -17.2%.
Turning to `CN(C)c1ccc(NC(=O)Cn2c(SCc3ccccc3F)nc3cccnc32)cc1`, the “activation” value was inactive: -15.8%.
Then `Cc1ccc(C)c(S(=O)(=O)c2nnn3c2nc(NCc2ccc4c(c2)OCO4)c2sccc23)c1`, with inactive: -6.73%; and `Cc1c(C)n(C)c2ccc(C(=O)NCCCN3CCCCC3)cc12`, with inactive: -24.7%; and `COc1ccc(NC(=O)C2=C(C)Nc3nc(SCc4ccccc4)nn3C2c2cc(OC)ccc2OC)cc1` (stereo unspecified), with inactive: -5.38%.
For the compound `Cc1ccc(-c2c(C(=O)NCCc3ccc(Cl)cc3)oc(=O)c3ccccc23)cc1`, the “activation” value was inactive: -2.75%.
For `Cc1cccc(N2C(=O)CCSC23C(=O)N(Cc2ccc(F)cc2)c2ccccc23)c1` (stereo unspecified), the “activation” value was inactive: 0.52%.
Then `O=C(c1ccc2c(Cl)c3c(nc2c1)CCCC3)N1CCN(c2cccc(Cl)c2)CC1`, with inactive: -35.6%; and `CCc1ccc(-c2ccc(C(=O)Oc3ccc(Br)cc3)cc2)nc1`, with inactive: -11.3%; and `Cc1ccc(S(=O)(=O)c2nc(-c3ccc(Cl)cc3)oc2N2CCCCCC2)cc1`, with inactive: -11.8%.
The figure for `CCN(CC)S(=O)(=O)c1ccc(C(=O)N=c2sc3cccc(OC)c3n2C)cc1` is inactive: -6.57%; for `COc1ccc(CNc2ncnc3c2c(-c2ccccc2)cn3-c2ccccc2)cc1` it is inactive: -12.3%.
For the compound `CN1CC(=O)N(CC(=O)Nc2ccc(Cl)c(C(F)(F)F)c2)c2ccccc2C1=O`, the “activation” value was inactive: -15.4%.
